Consider 35 compounds from the supplement of paper PMC9174493.

The subject of assay [1] is A549-Dual. Description: NF-kB reporter (SEAP) activity, viability-corrected, relative to vehicle (fold change vs vehicle); higher = more activation of STING-IRF / NF-kB immune response reporter. To be noted: 10 µM.
In assay [2] the test system is A549-Dual. Description: ISRE reporter (Lucia luciferase) activity, viability-corrected, relative to vehicle (fold change vs vehicle); higher = more activation of STING-IRF / NF-kB immune response reporter. To be noted: 10 µM.

The structures appear in SMILES notation. Counter-ions that a name gives are not always drawn. The list shows a part of the results. Single values of this set are uncertain. Values with irradiation are relative to irradiated vehicle.
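For NF-kB reporter (SEAP) activity, viability-corrected, relative to vehicle in this document: viability correction based on the alamar blue assay, with concentrations leaving 10% survival or less dropped.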

On to `CC/C(=C(\c1ccccc1)c1ccc(OCCN(C)C)cc1)c1ccccc1.O=C(O)CC(O)(CC(=O)O)C(=O)O` [Tamoxifen Citrate], for which the results for the NF-kB reporter in the assay on A549-Dual [1] (irradiation: 8 Gy/4 fr) and with A549-Dual [1] (irradiation: none) were 0.671 and 1.59, respectively. Moreover, the ISRE reporter with A549-Dual [2] (irradiation: 8 Gy/4 fr) worked out at 0.72; in the assay on A549-Dual [2] (irradiation: none), 1.69.
Taken in the same sequence, the figures for `Nc1c2c(nc3ccccc13)CCCC2` [Tacrine hydrochloride hydrate] were 0.825, 1.01, 0.632 and 0.497.
Take `CC(C)(C)NC(=O)C1CCC2C3CCC4NC(=O)C=CC4(C)C3CCC12C` (stereo not given) [Finasteride]: the NF-kB reporter in the assay with A549-Dual [1] (irradiation: 8 Gy/4 fr) came to 0.8; with A549-Dual [1] (irradiation: none) it was 0.841. Besides, the ISRE reporter in the assay on A549-Dual [2] (irradiation: 8 Gy/4 fr) came out at 0.816; in the assay on A549-Dual [2] (irradiation: none), 0.72.
Taken in the same sequence, the figures for `CC1=CC(=O)C2CC1C2(C)C` (single isomer, unassigned; (-)) [(-)-Verbenone] were 0.825, 0.656, 0.715 and 0.468.
On to `C=C1C2CCC(C2)C1(C)C` (stereo not given) [Camphene], for which the NF-kB reporter in the assay on A549-Dual [1] (irradiation: 8 Gy/4 fr) was determined as 0.864; with A549-Dual [1] (irradiation: none), 0.783. Also, the ISRE reporter in the assay on A549-Dual [2] (irradiation: 8 Gy/4 fr) was found to be 0.861; with A549-Dual [2] (irradiation: none), 0.674.
As for `CCCNS(=O)(=O)Nc1ncnc(OCCOc2ncc(Br)cn2)c1-c1ccc(Br)cc1` [Macitentan], the NF-kB reporter with A549-Dual [1] (irradiation: 8 Gy/4 fr) turned out to be 0.803; in the assay on A549-Dual [1] (irradiation: none), 0.964. The ISRE reporter is 0.185 in the assay on A549-Dual [2] (irradiation: 8 Gy/4 fr) and 0.232 with A549-Dual [2] (irradiation: none).
The like results for `COc1ccnc(CS(=O)c2nc3ccc(OC(F)F)cc3[nH]2)c1OC` (stereo not given) [Pantoprazole] were, in that order, 0.665, 0.97, 0.696 and 0.794.
Turning to `NCCc1c[nH]cn1.O=P(O)(O)O.O=P(O)(O)O` [Histamine Phosphate], the NF-kB reporter was 1.02 in the assay on A549-Dual [1] (irradiation: 8 Gy/4 fr) and 1.53 in the assay on A549-Dual [1] (irradiation: none). The values for the ISRE reporter in the assay with A549-Dual [2] (irradiation: 8 Gy/4 fr) and with A549-Dual [2] (irradiation: none) were 1.01 and 1.24, respectively.
The like results for `CN(C)CC(c1ccc(O)cc1)C1(O)CCCCC1` (stereo not given) [Desvenlafaxine] were, in that order, 0.879, 1.54, 0.832 and 0.821.
Consider `COc1ccccc1N1CCN(CC(O)COc2cccc3ccccc23)CC1` (stereo not given) [Naftopidil], for which the NF-kB reporter with A549-Dual [1] (irradiation: 8 Gy/4 fr) stood at 1.09; in the assay with A549-Dual [1] (irradiation: none), 0.669. The ISRE reporter with A549-Dual [2] (irradiation: 8 Gy/4 fr) was determined as 1.12; in the assay with A549-Dual [2] (irradiation: none), 0.583.
Turning to `O=C([O-])C(O)C(O)C(O)C(O)C(=O)[O-].O=C([O-])C(O)C(O)C(O)C(O)C(=O)[O-].O=C([O-])C(O)C(O)C(O)C(O)C(=O)[O-].[Fe+3].[Fe+3]` (stereo not given) [Iron sucrose], the results for the NF-kB reporter in the assay on A549-Dual [1] (irradiation: 8 Gy/4 fr) and in the assay with A549-Dual [1] (irradiation: none) were 1.54 and 1.23, respectively. The ISRE reporter was found to be 1.45 with A549-Dual [2] (irradiation: 8 Gy/4 fr) and 0.966 in the assay on A549-Dual [2] (irradiation: none).
Consider `CO/N=C(\C(=O)NC1C(=O)N2C(C(=O)O)=C(CSc3nnnn3C)CSC12)c1csc(N)n1.CO/N=C(\C(=O)NC1C(=O)N2C(C(=O)O)=C(CSc3nnnn3C)CSC12)c1csc(N)n1.Cl` (stereo not given) [Cefmenoxime hydrochloride], for which the results for the NF-kB reporter with A549-Dual [1] (irradiation: 8 Gy/4 fr) and in the assay with A549-Dual [1] (irradiation: none) were 0.839 and 0.907, respectively. Moreover, the ISRE reporter in the assay on A549-Dual [2] (irradiation: 8 Gy/4 fr) is 0.877; in the assay with A549-Dual [2] (irradiation: none), 0.773.
In the case of `COc1ccc(-n2nc(C(N)=O)c3c2C(=O)N(c2ccc(N4CCCCC4=O)cc2)CC3)cc1` [Apixaban], the results for the NF-kB reporter with A549-Dual [1] (irradiation: 8 Gy/4 fr) and with A549-Dual [1] (irradiation: none) were 0.722 and 0.876, respectively. Besides, the results for the ISRE reporter in the assay with A549-Dual [2] (irradiation: 8 Gy/4 fr) and in the assay with A549-Dual [2] (irradiation: none) were 0.744 and 0.793, respectively.
The like results for `CNCCc1ccccn1.Cl.Cl` [Betahistine 2HCl] were, in that order, 0.984, 0.998, 1.05 and 0.919.
Taken in the same sequence, the figures for `COc1ncnc(NS(=O)(=O)c2ccc(N)cc2)c1OC` [Sulfadoxine] were 0.996, 0.956, 0.92 and 0.799.
Taken in the same sequence, the figures for `NC(CC(=O)N1CCn2c(nnc2C(F)(F)F)C1)Cc1cc(F)c(F)cc1F` (stereo not given) [Sitagliptin] were 0.619, 0.91, 0.613 and 0.633.
For `CC(C)NCC(O)c1ccc(O)c(O)c1.Cl` (stereo not given) [Isoprenaline HCl], the NF-kB reporter worked out at 1.08 in the assay on A549-Dual [1] (irradiation: 8 Gy/4 fr) and 1.32 in the assay on A549-Dual [1] (irradiation: none). Further, the ISRE reporter amounted to 1.04 in the assay with A549-Dual [2] (irradiation: 8 Gy/4 fr) and 1.08 in the assay with A549-Dual [2] (irradiation: none).
For the compound `COc1cc(C=O)ccc1O` [Vanillin], the NF-kB reporter is 0.758 in the assay with A549-Dual [1] (irradiation: 8 Gy/4 fr) and 0.783 in the assay with A549-Dual [1] (irradiation: none). The ISRE reporter with A549-Dual [2] (irradiation: 8 Gy/4 fr) was 0.844; in the assay on A549-Dual [2] (irradiation: none) it was 0.709.
Taken in the same sequence, the figures for `CC1(C)SC2C(NC(=O)C(C(=O)[O-])c3ccccc3)C(=O)N2C1C(=O)[O-].[Na+].[Na+]` (stereo not given) [Carbenicillin disodium] were 1.11, 1.04, 1.28 and 0.934.
The like results for `CCC(C)(Oc1ccc(C2(c3ccc(OC(C)(CC)C(=O)O)cc3)CCCCC2)cc1)C(=O)O` (stereo not given) [Clinofibrate] were, in that order, 0.958, 1.17, 0.988 and 1.47.
Taken in the same sequence, the figures for `CC1C(NC(=O)/C(=N\OC(C)(C)C(=O)O)c2csc(N)n2)C(=O)N1S(=O)(=O)O` (stereo not given) [Aztreonam] were 0.76, 0.886, 0.807 and 0.716.
`CCc1cc2c(cc1CC)CC(NCC(O)c1ccc(O)c3[nH]c(=O)ccc13)C2` (stereo not given) [Indacaterol]: the NF-kB reporter with A549-Dual [1] (irradiation: 8 Gy/4 fr) came to 1.11; with A549-Dual [1] (irradiation: none) it was 1.85. The results for the ISRE reporter in the assay with A549-Dual [2] (irradiation: 8 Gy/4 fr) and with A549-Dual [2] (irradiation: none) were 0.814 and 0.826, respectively.
The like results for `O.O.O=c1c(O)c(-c2ccc(O)c(O)c2)oc2cc(O)cc(O)c12` [Quercetin Dihydrate] were, in that order, 0.812, 0.698, 0.426 and 0.369.
Taken in the same sequence, the figures for `CC1=CC(O)CC(C)(C)C1/C=C/C(C)=C/C=C/C(C)=C/C=C/C=C(C)/C=C/C=C(C)/C=C/C1=C(C)CC(O)CC1(C)C` (stereo not given) [lutein] were 0.387, 0.501, 0.503 and 0.544.
The like results for `Cc1ccc(C(=O)c2ccc(CC(=O)[O][Na])n2C)cc1.O.O` [Tolmetin Sodium] were, in that order, 0.779, 1.56, 0.527 and 2.61.
`Cc1c(C(C)C)c(=O)n(-c2ccccc2)n1C` [Propyphenazone (4-Isopropylantipyrine)]: the NF-kB reporter in the assay on A549-Dual [1] (irradiation: 8 Gy/4 fr) was 0.805; with A549-Dual [1] (irradiation: none), 0.86. For the same compound, the ISRE reporter in the assay with A549-Dual [2] (irradiation: 8 Gy/4 fr) amounted to 0.67; with A549-Dual [2] (irradiation: none) it was 0.512.
Regarding `O=C1C=C(O)C(=O)c2ccccc21` [Lawsone], the NF-kB reporter amounted to 0.364 with A549-Dual [1] (irradiation: 8 Gy/4 fr) and 0.529 with A549-Dual [1] (irradiation: none). Besides, the ISRE reporter with A549-Dual [2] (irradiation: 8 Gy/4 fr) worked out at 0.0852; in the assay on A549-Dual [2] (irradiation: none), 0.162.
Taken in the same sequence, the figures for `NCC(=O)[O-].NCC(=O)[O-].[Fe+2]` [Ferrous Bisglycinate] were 0.848, 0.898, 0.764 and 0.834.
The like results for `CC(N)C(O)c1cccc(O)c1.O=C(O)C(O)C(O)C(=O)O` (stereo not given) [Metaraminol Bitartrate] were, in that order, 0.811, 0.967, 0.771 and 0.605.
As for `CC(=O)OCCC(C)CCC=C(C)C` (stereo not given) [Citronellyl acetate], the results for the NF-kB reporter with A549-Dual [1] (irradiation: 8 Gy/4 fr) and in the assay on A549-Dual [1] (irradiation: none) were 1.1 and 0.792, respectively. Besides, the ISRE reporter in the assay on A549-Dual [2] (irradiation: 8 Gy/4 fr) was found to be 1.02; with A549-Dual [2] (irradiation: none), 0.612.
Taken in the same sequence, the figures for `Clc1ccc(CCC(Cn2ccnc2)Sc2c(Cl)cccc2Cl)cc1.O=[N+]([O-])O` (stereo not given) [Butoconazole nitrate] were 0.598, 1.09, 0.614 and 1.14.
Turning to `Nc1nc(NC2CC2)c2ncn(C3C=CC(CO)C3)c2n1` (stereo not given) [Abacavir], the NF-kB reporter amounted to 0.676 in the assay on A549-Dual [1] (irradiation: 8 Gy/4 fr) and 0.862 in the assay with A549-Dual [1] (irradiation: none). Moreover, the results for the ISRE reporter with A549-Dual [2] (irradiation: 8 Gy/4 fr) and with A549-Dual [2] (irradiation: none) were 0.621 and 0.644, respectively.
The like results for `O=c1cc(-c2ccc(O)c(O)c2)oc2cc(O)c(C3OC(CO)C(O)C(O)C3O)c(O)c12` (stereo not given) [Homoorientin] were, in that order, 0.76, 0.78, 0.596 and 0.616.
Taken in the same sequence, the figures for `CC1CCCC(C)N1NC(=O)c1ccc(Cl)c(S(N)(=O)=O)c1` (stereo not given) [Clopamide] were 0.552, 0.646, 0.603 and 0.543.
In the case of `CCn1cc(C(=O)O)c(=O)c2cc(F)c(N3CCN(C)CC3)cc21.CS(=O)(=O)O.O.O` [Pefloxacin Mesylate Dihydrate], the NF-kB reporter in the assay on A549-Dual [1] (irradiation: 8 Gy/4 fr) was 0.847; in the assay with A549-Dual [1] (irradiation: none), 0.943. Moreover, the ISRE reporter was 0.791 with A549-Dual [2] (irradiation: 8 Gy/4 fr) and 0.776 with A549-Dual [2] (irradiation: none).
